Laboratory results from a compilation of properties of binary mixtures (doi:10.1016/j.molliq.2017.12.015).
Some of these densities may be calculated back from excess volumes.

Assay: xn = mol fraction of the nth substance listed
Conditions: 100 kPa

CCOCCO + CCCC[n+]1ccn(C)c1.O=S(=O)([N-]S(=O)(=O)C(F)(F)F)C(F)(F)F
mass density [kg/m3]
Conditions	x2 = 0	x2 = 0.1036	x2 = 0.1905	x2 = 0.2965	x2 = 0.3882	x2 = 0.489	x2 = 0.5889	x2 = 0.7018	x2 = 0.7928	x2 = 0.9071
298.15 K	925.1	1059.6	–	–	1263.7	1305.7	1340	1370.9	–	1418.3
303.15 K	921	1055.4	1137.7	1210.7	–	1301.2	1335	1366	1388.3	1413.4
308.15 K	916.8	1051.2	1133.4	1206.3	1254.7	1296.7	1330.1	1361.2	1383.4	1408.5
313.15 K	–	1047	1129.2	–	–	1292.2	1325.2	1356.3	1378.5	1403.6
318.15 K	908.5	1042.8	1124.9	–	–	1287.8	1320.2	1351.4	–	1398.7
323.15 K	904.3	1038.6	1120.7	–	1241.2	1283.3	1315.3	1346.5	1368.7	1393.8

CCCC[n+]1ccn(C)c1.O=S(=O)([N-]S(=O)(=O)C(F)(F)F)C(F)(F)F + CCOCCO
x1 = 1
Conditions	mass density [kg/m3]
298.15 K	1437.1
303.15 K	1432.5
308.15 K	1427.4
313.15 K	1422.9
318.15 K	1417.9
323.15 K	1413.6
